Results: patent US3974140A, “Ureidoacetamido-penicillins” (Bayer Aktiengesellschaft, priority 1970, dated 1976)
Several values for one entry are separate records, joined by “and”; a condition that tells them apart may be missing. Equal values may be shown once. At least one read-out could not be matched to a standard name with certainty.

Experiments:
Test in all cases: Surviving mice after intraperitoneal infection and subcutaneous therapy
Type in all cases: in vivo, white mice, CF1 strain
[1] = test system: E. coli C 165
[2] = test system: Psdm. aerug. Walter
Protocol: The experiments on animals (see Table 3) were carried out with white mice of the CF1 strain. The infection took place intraperitoneally with the particular bacterium indicated.

[3] = test system: Klebsiella 63
[4] = test system: Proteus vulg. 1017
[5] = Dose A = 37,500 units/kg, 30 and 90 min after infection, 1st day

COc1ccc(C(=O)N(C)C(=O)N[C@@H](C(=O)N[C@@H]2C(=O)N3[C@@H]2SC(C)(C)[C@@H]3C(=O)O)c2ccccc2)cc1[N+](=O)[O-] [Example 83, Sodium D(-)-α-(3-[4-methoxy-3-nitrobenzoyl]-3-methyl-ureido)-benzylpenicillin]
Number of surviving mice ([1]; E. coli C 165, 2 × 3000 units/mouse s.c., 30 and 90 min after infection, 1 day): 90% | Number of surviving mice ([1]; E. coli C 165, 2 × 3000 units/mouse s.c., 2 days): 60% | Number of surviving mice ([1]; E. coli C 165, 2 × 3000 units/mouse s.c., 3 days): 60% | Number of surviving mice ([1]; E. coli C 165, 2 × 3000 units/mouse s.c., 5 days): 60% | Number of surviving mice ([2]; Psdm. aerug. Walter, 4 × 3000 units/mouse s.c., 1 day): 70% | Number of surviving mice ([2]; Psdm. aerug. Walter, 4 × 3000 units/mouse s.c., 2 days): 20% | Number of surviving mice ([3]; Klebsiella 63, 2 × 3000 units/mouse s.c., 1 day): 100% | Number of surviving mice ([3]; Klebsiella 63, 2 × 3000 units/mouse s.c., 2 days): 100% | Number of surviving mice ([3]; Klebsiella 63, 2 × 3000 units/mouse s.c., 3 days): 60% | Number of surviving mice ([4]; Proteus vulg., 2 × 3000 units/mouse s.c., 1 day): 100% | Number of surviving mice ([4]; Proteus vulg., 2 × 3000 units/mouse s.c., 2 days): 100% | Number of surviving mice ([4]; Proteus vulg., 2 × 3000 units/mouse s.c., 3 days): 100% | Number of surviving mice ([4]; Proteus vulg., 2 × 3000 units/mouse s.c., 5 days): 100%

CC1(C)S[C@@H]2[C@H](NC(=O)[C@H](NC(=O)N3CCNC3=O)c3ccccc3)C(=O)N2[C@H]1C(=O)O [Example 144 A, D(-)-α-(Imidazolidin-2-on-1-yl-carbonylamino)-benzyl-penicillin]
Number of surviving mice [1, 5]: 80% | Number of surviving mice ([1]; Dose A = 37,500 units/kg, 2nd day): 80% | Number of surviving mice ([1]; Dose A = 37,500 units/kg, 3rd day): 80% | Number of surviving mice ([1]; Dose A = 37,500 units/kg, 5th day): 80% | Number of surviving mice ([2]; Dose D = 150,000 units/kg, 0.5, 2, 4 and 6 hours after infection, 1st day): 100% | Number of surviving mice ([2]; Dose D = 150,000 units/kg, 2nd day): 20% | Number of surviving mice ([2]; Dose D = 150,000 units/kg, 3rd day): 20% | Number of surviving mice ([2]; Dose D = 150,000 units/kg, 5th day): 20% | Number of surviving mice [3, 5]: 30% | Number of surviving mice ([3]; Dose B = 75,000 units/kg, 30 and 90 min after infection, 1st day, listed as 144): 70% and 100% | Number of surviving mice ([3]; Dose B = 75,000 units/kg, 2nd day): 30% | Number of surviving mice ([3]; Dose B = 75,000 units/kg, 3rd day): 0% | Number of surviving mice ([3]; Dose C = 150,000 units/kg, 30 and 90 min, 1st day): 100% | Number of surviving mice ([4]; Prot. vulg. 1017, Dose A = 37,500 units/kg, 30 and 90 min after infection, 1st day): 70% | Number of surviving mice ([4]; Prot. vulg. 1017, Dose A = 37,500 units/kg, 2nd day): 50% | Number of surviving mice ([4]; Prot. vulg. 1017, Dose A = 37,500 units/kg, 3rd day): 50% | Number of surviving mice ([4]; Prot. vulg. 1017, Dose A = 37,500 units/kg, 5th day): 50%
